We go through one molecule from patent publication US20250382354A1.

The target in this assay is SARS-CoV-2 FP peptide (SARS-CoV-2). The assay can be described thus: peptide ELISA.

B1: fp.007 (antibody, V domains shown)
VH: EVQLVESGGGLVKPGGSLRLSCAGTGFIFSDAWMTWVRQAPGKGLEWVGRIKSKADGGTTDYAAPVKGRFTISRDDSKNTLYLEINSLKTEDTAVYYCTTGRSRYCIGAVCYYFDHWGQGTLVTVSS
VL: [… about 100 residues …]YCTQTLQTPYTFGQGTKLEIK
For B1, the EC50 was 0.177 µg/mL.

Usually EC50 stands for the concentration that produces a half-maximal response.
